Paper PMC5700166
Only a part is listed here, and it is no random draw. For some assays here: The list includes weakly bound sequences.

Columns and labels:
Assay in all cases: protein-binding microarray (PBM)
Conditions in all cases: PBM: ~300 nM protein, 6 mM HEPES pH 7.8, 80 mM KCl, 0.5 mM EDTA, 0.5 mM EGTA, 6% glycerol, 35 ng/ul poly-dIdC, 1% milk, 1 h, room temperature; Ap Aiptasia and Nv Nematostella (sea anemones) / Co Capsaspora / Aq Amphimedon (sponge) / Dm Drosophila / Hu human; RHD is the Rel homology domain; high values mean tight binding; most listed sequences are background and not binding sites; double strand, one strand shown
GST-Ap-NF-kB RHD = target: T1, GST-Ap-NF-kB RHD (UniProt A0A913YAJ5)
T1 sequence: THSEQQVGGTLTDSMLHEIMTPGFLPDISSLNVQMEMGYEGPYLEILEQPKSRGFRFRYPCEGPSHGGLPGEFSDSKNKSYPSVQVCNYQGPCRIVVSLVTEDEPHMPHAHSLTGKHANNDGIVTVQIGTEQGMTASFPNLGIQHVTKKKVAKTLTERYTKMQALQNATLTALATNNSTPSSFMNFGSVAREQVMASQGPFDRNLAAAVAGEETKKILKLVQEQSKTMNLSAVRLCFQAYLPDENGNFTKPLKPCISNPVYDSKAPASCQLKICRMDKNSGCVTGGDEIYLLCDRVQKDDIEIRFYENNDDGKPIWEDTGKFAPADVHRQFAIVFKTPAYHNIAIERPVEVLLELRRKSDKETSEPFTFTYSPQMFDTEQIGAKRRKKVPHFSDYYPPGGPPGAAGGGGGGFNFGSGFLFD

GST-Co-NF-kB = target: T2, GST-Co-NF-kB (UniProt F1ARL5)
T2 sequence: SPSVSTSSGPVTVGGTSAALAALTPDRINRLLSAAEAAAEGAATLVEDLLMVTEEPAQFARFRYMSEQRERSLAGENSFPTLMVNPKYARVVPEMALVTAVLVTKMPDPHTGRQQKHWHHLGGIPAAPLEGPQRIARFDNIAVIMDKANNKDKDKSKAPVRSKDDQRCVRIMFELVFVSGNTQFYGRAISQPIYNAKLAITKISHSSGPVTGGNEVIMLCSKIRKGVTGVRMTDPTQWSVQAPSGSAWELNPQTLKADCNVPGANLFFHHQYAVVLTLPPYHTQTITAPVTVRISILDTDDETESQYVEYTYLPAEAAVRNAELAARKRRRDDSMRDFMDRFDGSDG

GST-Dm-Relish = target: T3, GST-Dm-Relish (UniProt Q94527)
T3 sequence: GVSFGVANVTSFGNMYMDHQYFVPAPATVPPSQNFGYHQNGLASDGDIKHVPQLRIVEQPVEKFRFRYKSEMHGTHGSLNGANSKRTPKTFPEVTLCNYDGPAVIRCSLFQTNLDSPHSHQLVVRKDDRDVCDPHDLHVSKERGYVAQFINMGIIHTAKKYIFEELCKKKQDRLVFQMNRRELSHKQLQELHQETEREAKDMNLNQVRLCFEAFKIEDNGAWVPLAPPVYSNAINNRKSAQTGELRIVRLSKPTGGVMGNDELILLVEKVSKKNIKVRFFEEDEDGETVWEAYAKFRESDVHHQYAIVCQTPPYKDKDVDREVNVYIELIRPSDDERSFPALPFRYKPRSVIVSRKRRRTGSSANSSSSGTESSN

Sequence | binding signal (GST-Ap-NF-kB RHD) [z-score] | binding signal (GST-Co-NF-kB) [z-score] | binding signal (GST-Dm-Relish) [z-score]
CCGATTAACATCAAGGGGGGATGTGATGTTAATCGGGTCTTGATTCGCTTGACGCTGCTG | 5.69 | 4.75 | 
CCGATTAACATCACCCCCTCCCCTGATGTTAATCGGGTCTTGATTCGCTTGACGCTGCTG | 3.75 | 4.75 | 
CCGATTAACATCAGGGACAGCCCTGATGTTAATCGGGTCTTGATTCGCTTGACGCTGCTG | 3.43 | 0.0923 | 
CCGATTAACATCAATATTTACCCTGATGTTAATCGGGTCTTGATTCGCTTGACGCTGCTG | 1.68 | 3.33 | 
CCGATTAACATCACAGGGAAAAATGATGTTAATCGGGTCTTGATTCGCTTGACGCTGCTG | 2.81 | 5.03 | 
CCGATTAACATCACATTCTCCCCTGATGTTAATCGGGTCTTGATTCGCTTGACGCTGCTG | 4.7 | 6.71 | 
CCGATTAACATCAGGGGGTGTACTGATGTTAATCGGGTCTTGATTCGCTTGACGCTGCTG | 3.65 | 2.61 | 
CCGATTAACATCAAAATCACCCCTGATGTTAATCGGGTCTTGATTCGCTTGACGCTGCTG | 4.66 | 5.02 | 
CCGATTAACATCAGGGGGGTTAATGATGTTAATCGGGTCTTGATTCGCTTGACGCTGCTG | 4.64 | 3.92 | 
CCGATTAACATCAGGGGCCGTAATGATGTTAATCGGGTCTTGATTCGCTTGACGCTGCTG | 1.66 | 0.38 | 0.71
CCGATTAACATCAGATTTACCCCTGATGTTAATCGGGTCTTGATTCGCTTGACGCTGCTG | 3.07 | 6.39 | 
CCGATTAACATCAAGCCTGTCCCTGATGTTAATCGGGTCTTGATTCGCTTGACGCTGCTG | 2.01 | 0.08 | -0.195
